Patent US9603889B2, “IAP antagonists” (BRISTOL-MYERS SQUIBB COMPANY, priority 2012, dated 2017)

Biological target: XIAP BIR2 (His-BIR2 (124-240/C202A/C213G)) (Homo sapiens (Human), UniProt P98170, C202A/C213G)
Conditions: read-out: XIAP-BIR2 AlphaScreen IC50; 50 nM His-BIR2 (124-240/C202A/C213G), 50 nM Biotinylated SMAC peptide

SMILES | IC50
CN[C@@H](C)C(=O)N[C@H](C(=O)N1C[C@@H](NC(=O)n2ccc3cc(CN(C(=O)[C@@H]4Cc5ccccc5CN4C(=O)[C@@H](NC(=O)[C@H](C)NC)C(C)(C)C)C(COC)c4ccccc4)ccc32)C[C@H]1C(=O)N[C@@H]1CCCc2ccccc21)C(C)(C)C (stereo in doubt) [Example 9, (S)-2-((S)-3,3-Dimethyl-2-((S)-2-(methylamino)propanamido)butanoyl)-N-((1-(((3S,5S)-1-((S)-3,3-dimethyl-2-((S)-2-(methylamino)propanamido)butanoyl)-5-(((R)-1,2,3,4-tetrahydronaphthalen-1-yl)carbamoyl)pyrrolidin-3-yl)carbamoyl)-1H-indol-5-yl)methyl)-N-((S)-2-methoxy-1-phenylethyl)-1,2,3,4-tetrahydroisoquinoline-3-carboxamide] | 340 nM
CNC(C)C(=O)N[C@H](C(=O)N1C[C@@H](NC(=O)c2ccc(C(=O)N(C[C@@H]3Cc4ccccc4CN3C(=O)[C@@H](NC(=O)[C@H](C)NC)C(C)(C)C)[C@H](C)Cc3ccccc3F)cc2)C[C@H]1C(=O)N[C@@H]1CCCc2ccccc21)C(C)(C)C (stereo in doubt) [Example 17, N^1-(((S)-2-((S)-3,3-dimethyl-2-((S)-2-(methylamino)propanamido)butanoyl)-1,2,3,4-tetra-hydroisoquinolin-3-yl)methyl)-N^4-((3S,5S)-1-((S)-3,3-dimethyl-2-((S)-2-(methyl-amino)propanamido)butanoyl)-5-(((R)-1,2,3,4-tetrahydro-naphthalen-1-yl)carbamoyl)pyrrolidin-3-yl)-N^1-((R)-1-(2-fluorophenyl)propan-2-yl) terephthalamide] | 590 nM
CN[C@@H](C)C(=O)N[C@H](C(=O)N1CC(NC(=O)c2cccc(CN(C(=O)[C@@H]3Cc4ccccc4CN3C(=O)[C@@H](NC(=O)[C@H](C)NC)C(C)(C)C)C(COC)c3ccccc3)c2)C[C@H]1C(=O)NC1CCCc2ccccc21)C(C)(C)C (stereo in doubt) [Example 39, (S)-2-((S)-3,3-Dimethyl-2-((S)-2-(methylamino)propanamido)butanoyl)-N-(3-(((3S,5S)-1-((S)-3,3-dimethyl-2-((S)-2-(methylamino)propanamido)butanoyl)-5-(((R)-1,2,3,4-tetrahydronaphthalen-1-yl)carbamoyl)pyrrolidin-3-yl)carbamoyl)benzyl)-N-((S)-2-methoxy-1-phenylethyl)-1,2,3,4-tetrahydroisoquinoline-3-carboxamide] | 320 nM
CN[C@@H](C)C(=O)N[C@H](C(=O)N1CC(NC(=O)CN(C(=O)[C@@H]2Cc3ccccc3CN2C(=O)[C@@H](NC(=O)[C@H](C)NC)C(C)(C)C)C(COC)c2ccccc2)C[C@H]1C(=O)NC1CCCc2ccccc21)C(C)(C)C (stereo in doubt) [Example 40, (S)-2-((S)-3,3-Dimethyl-2-((S)-2-(methylamino)propanamido)butanoyl)-N-(2-(((3S,5S)-1-((S)-3,3-dimethyl-2-((S)-2-(methylamino)propanamido)butanoyl)-5-(((R)-1,2,3,4-tetrahydronaphthalen-1-yl)carbamoyl)pyrrolidin-3-yl)amino)-2-oxoethyl)-N-((S)-2-methoxy-1-phenylethyl)-1,2,3,4-tetrahydroisoquinoline-3-carboxamide] | 1210 nM
CN[C@@H](C)C(=O)N[C@H](C(=O)N1C[C@@H](NC(=O)c2ccc(CN(CCc3ccccc3)C(=O)[C@@H]3Cc4ccccc4CN3C(=O)[C@@H](NC(=O)[C@H](C)NC)C(C)(C)C)cc2)C[C@H]1C(=O)N[C@@H]1CCCc2ccccc21)C(C)(C)C [Example 2, (S)-2-((S)-3,3-Dimethyl-2-((S)-2-(methylamino)propanamido)butanoyl)-N-(4-(((3S,5S)-1-((S)-3,3-dimethyl-2-((S)-2-(methylamino)propanamido)butanoyl)-5-(((R)-1,2,3,4-tetrahydronaphthalen-1-yl)carbamoyl)pyrrolidin-3-yl)carbamoyl)benzyl)-N-phenethyl-1,2,3,4-tetrahydroisoquinoline-3-carboxamide] | 850 nM
CN[C@@H](C)C(=O)N[C@H](C(=O)N1C[C@@H](NC(=O)c2ccc(CN(C(=O)[C@@H]3Cc4ccccc4CN3C(=O)[C@@H](NC(=O)[C@H](C)NC)C(C)(C)C)[C@H](C)c3cccc(OC)c3)cc2)C[C@H]1C(=O)N[C@@H]1CCCc2ccccc21)C(C)(C)C [Example 3, (S)-2-((S)-3,3-Dimethyl-2-((S)-2-(methylamino)propanamido)butanoyl)-N-(4-(((3S,5S)-1-((S)-3,3-dimethyl-2-((S)-2-(methylamino)propanamido)butanoyl)-5-(((R)-1,2,3,4-tetrahydronaphthalen-1-yl)carbamoyl)pyrrolidin-3-yl)carbamoyl)benzyl)-N-((R)-1-(3-methoxyphenyl)ethyl)-1,2,3,4-tetrahydroisoquinoline-3-carboxamide] | 120 nM
CN[C@@H](C)C(=O)N[C@H](C(=O)N1C[C@@H](NC(=O)c2ccc(CN(C(=O)[C@@H]3Cc4ccccc4CN3C(=O)[C@@H](NC(=O)[C@H](C)NC)C(C)(C)C)[C@H](C)c3ccc(F)cc3)cc2)C[C@H]1C(=O)N[C@@H]1CCCc2ccccc21)C(C)(C)C [Example 4, (S)-2-((S)-3,3-Dimethyl-2-((S)-2-(methylamino)propanamido)butanoyl)-N-(4-(((3S,5S)-1-((S)-3,3-dimethyl-2-((S)-2-(methylamino)propanamido)butanoyl)-5-(((R)-1,2,3,4-tetrahydronaphthalen-1-yl)carbamoyl)pyrrolidin-3-yl)carbamoyl)benzyl)-N-((R)-1-(4-fluorophenyl)ethyl)-1,2,3,4-tetrahydroisoquinoline-3-carboxamide] | 180 nM
CN[C@@H](C)C(=O)N[C@H](C(=O)N1C[C@@H](NC(=O)c2ccc(CN(C(=O)[C@@H]3Cc4ccccc4CN3C(=O)[C@@H](NC(=O)[C@H](C)NC)C(C)(C)C)[C@H](C)c3ccccc3Cl)cc2)C[C@H]1C(=O)N[C@@H]1CCCc2ccccc21)C(C)(C)C [Example 5, (S)-N-((R)-1-(2-Chlorophenyl)ethyl)-2-((S)-3,3-dimethyl-2-((S)-2-(methylamino)propanamido)butanoyl)-N-(4-(((3S,5S)-1-((S)-3,3-dimethyl-2-((S)-2-(methylamino)propanamido)butanoyl)-5-(((R)-1,2,3,4-tetrahydronaphthalen-1-yl)carbamoyl)pyrrolidin-3-yl)carbamoyl)benzyl)-1,2,3,4-tetrahydroisoquinoline-3-carboxamide] | 300 nM
CCC[C@H](c1ccccc1)N(Cc1ccc(C(=O)N[C@H]2C[C@@H](C(=O)N[C@@H]3CCCc4ccccc43)N(C(=O)[C@@H](NC(=O)[C@H](C)NC)C(C)(C)C)C2)cc1)C(=O)[C@@H]1Cc2ccccc2CN1C(=O)[C@@H](NC(=O)[C@H](C)NC)C(C)(C)C [Example 7, (S)-2-((S)-3,3-Dimethyl-2-((S)-2-(methylamino)propanamido)butanoyl)-N-(4-(((3S,5S)-1-((S)-3,3-dimethyl-2-((S)-2-(methylamino)propanamido)butanoyl)-5-(((R)-1,2,3,4-tetrahydronaphthalen-1-yl)carbamoyl)pyrrolidin-3-yl)carbamoyl)benzyl)-N-((R)-1-phenylbutyl)-1,2,3,4-tetrahydroisoquinoline-3-carboxamide] | 1140 nM
CN[C@@H](C)C(=O)N[C@H](C(=O)N1Cc2ccccc2C[C@H]1CN(CCc1ccccc1)C(=O)c1ccc(C(=O)N[C@H]2C[C@@H](C(=O)N[C@@H]3CCCc4ccccc43)N(C(=O)[C@@H](NC(=O)[C@H](C)NC)C(C)(C)C)C2)cc1)C(C)(C)C [Example 10, N^1-(((S)-2-((S)-3,3-Dimethyl-2-((S)-2-(methylamino)propanamido)butanoyl)-1,2,3,4-tetrahydroisoquinolin-3-yl)methyl)-N^4-((3S,5S)-1-((S)-3,3-dimethyl-2-((S)-2-(methylamino)propanamido)butanoyl)-5-(((R)-1,2,3,4-tetrahydronaphthalen-1-yl)carbamoyl)pyrrolidin-3-yl)-N^1-phenethylterephthalamide] | 410 nM
CN[C@@H](C)C(=O)N[C@H](C(=O)N1C[C@@H](NC(=O)c2ccc(CN(Cc3cccc(Cl)c3Cl)C(=O)[C@@H]3Cc4ccccc4CN3C(=O)[C@@H](NC(=O)[C@H](C)NC)C(C)(C)C)cc2)C[C@H]1C(=O)N[C@@H]1CCCc2ccccc21)C(C)(C)C [Example 11, (S)-N-(2,3-Dichlorobenzyl)-2-((S)-3,3-dimethyl-2-((S)-2-(methylamino)propanamido)butanoyl)-N-(4-(((3S,5S)-1-((S)-3,3-dimethyl-2-((S)-2-(methylamino)propanamido)butanoyl)-5-(((R)-1,2,3,4-tetrahydro-naphthalen-1-yl)carbamoyl)pyrrolidin-3-yl)carbamoyl)benzyl)-1,2,3,4-tetra-hydroisoquinoline-3-carboxamide] | 510 nM
CN[C@@H](C)C(=O)N[C@H](C(=O)N1C[C@@H](NC(=O)c2ccc(CN(CCc3ccc4ccccc4c3)C(=O)[C@@H]3Cc4ccccc4CN3C(=O)[C@@H](NC(=O)[C@H](C)NC)C(C)(C)C)cc2)C[C@H]1C(=O)N[C@@H]1CCCc2ccccc21)C(C)(C)C [Example 12, (S)-2-((S)-3,3-Dimethyl-2-((S)-2-(methylamino)propanamido)butanoyl)-N-(4-(((3S,5S)-1-((S)-3,3-dimethyl-2-((S)-2-(methyl-amino)propanamido)butanoyl)-5-(((R)-1,2,3,4-tetrahydro-naphthalen-1-yl)carbamoyl)pyrrolidin-3-yl)carbamoyl)benzyl)-N-(2-(naphthalen-2-yl)ethyl)-1,2,3,4-tetrahydro-isoquinoline-3-carboxamide] | 1300 nM
CN[C@@H](C)C(=O)N[C@H](C(=O)N1C[C@@H](NC(=O)c2ccc(CN(Cc3ccccc3)C(=O)[C@@H]3Cc4ccccc4CN3C(=O)[C@@H](NC(=O)[C@H](C)NC)C(C)(C)C)cc2)C[C@H]1C(=O)N[C@@H]1CCCc2ccccc21)C(C)(C)C [Example 13, (S)-N-Benzyl-2-((S)-3,3-dimethyl-2-((S)-2-(methylamino)propanamido)butanoyl)-N-(4-(((3S,5S)-1-((S)-3,3-dimethyl-2-((S)-2-(methylamino)propanamido)butanoyl)-5-(((R)-1,2,3,4-tetrahydro-naphthalen-1-yl)carbamoyl)pyrrolidin-3-yl)carbamoyl)benzyl)-1,2,3,4-tetra-hydroisoquinoline-3-carboxamide] | 600 nM
